The structures appear in SMILES notation. The list shows a part of the results. Most values come without repeats; read them as rough.
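Note: cell number obtained by counting DAPI-stained nuclei in high-throughput microscope images with image analysis software, screen run in 1,536-well plates.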

The subject of this test is C32. The experiment in a line: cell count relative to DMSO control; melanoma cells; higher = more viable cells. The note with it: library dose: low library concentration; 72 h.
`CC(=O)c1c(C)c2cnc(Nc3ccc(N4CCNCC4)cn3)nc2n(C2CCCC2)c1=O` [palbociclib] + COc1cc(N2CCC(N3CCN(C)CC3)CC2)ccc1Nc1ncc(Cl)c(Nc2ccccc2S(=O)(=O)C(C)C)n1 [NVP-TAE684] (first compound 0.04 µM, partner dose 0.08 µM) came in with a cell count of 80.3%. The same measure for `CC(=O)O[C@@]12CO[C@@H]1C[C@H](O)[C@@]1(C)C(=O)[C@H](O)C3=C(C)[C@@H](OC(=O)[C@H](O)[C@@H](NC(=O)OC(C)(C)C)c4ccccc4)C[C@@](O)([C@@H](OC(=O)c4ccccc4)[C@H]21)C3(C)C` [Docetaxel] + CCCCCCCCCCCC1=C(O)C(=O)C=C(O)C1=O [Embelin] (first compound 0.0001 µM, partner dose 1.2 µM): 91.1%; for `Nc1nc(F)nc2c1ncn2[C@@H]1O[C@H](CO)[C@@H](O)[C@@H]1O` [fludarabine] + NCC(=O)Nc1ccc(-n2nc(C(F)(F)F)cc2-c2ccc3c(ccc4ccccc43)c2)cc1 [OSU03012] (first compound 0.2 µM, partner dose 1 µM): 102%.

In the case of `Nc1ccn([C@@H]2O[C@H](CO)[C@@H](O)C2(F)F)c(=O)n1` [gemcitabine] + COc1cc(Nc2ncc(F)c(Nc3ccc4c(n3)NC(=O)C(C)(C)O4)n2)cc(OC)c1OC [Tamatinib] (first compound 0.0004 µM, partner dose 0.4 µM), the cell count was determined as 99.2%. `Nc1nc(F)nc2c1ncn2[C@@H]1O[C@H](CO)[C@@H](O)[C@@H]1O` [fludarabine] + COc1cc(N2CCC(N3CCN(C)CC3)CC2)ccc1Nc1ncc(Cl)c(Nc2ccccc2S(=O)(=O)C(C)C)n1 [NVP-TAE684] (first compound 0.2 µM, partner dose 0.08 µM) had a cell count of 83.6%. The compound `Nc1ncn([C@H]2C[C@H](O)[C@@H](CO)O2)c(=O)n1` [decitabine] + COc1cc(Nc2ncc(F)c(Nc3ccc4c(n3)NC(=O)C(C)(C)O4)n2)cc(OC)c1OC [Tamatinib] (first compound 0.1 µM, partner dose 0.4 µM) yielded a cell count of 83.1%. `Nc1ccn([C@@H]2O[C@H](CO)[C@@H](O)C2(F)F)c(=O)n1` [gemcitabine] + Cc1ccc(NC(=O)c2cccc(N(C)C)c2)cc1NC(=O)c1ccc(O)cc1 [ZM336372] (first compound 0.0004 µM, partner dose 2 µM) registered a cell count of 94.1%. The compound `Nc1ncn([C@H]2C[C@H](O)[C@@H](CO)O2)c(=O)n1` [decitabine] + NCC(=O)Nc1ccc(-n2nc(C(F)(F)F)cc2-c2ccc3c(ccc4ccccc43)c2)cc1 [OSU03012] (first compound 0.1 µM, partner dose 1 µM) returned a cell count of 99.2%.

For the origin of these results see the supplement of paper PMC4604168 (melanoma cell lines).
